In PubChem BioAssay AID652104 (National Center for Advancing Translational Sciences (NCATS), 2013):
Out of some 410,000 compounds screened, about 7,200 (1.8%) were called active. Inconclusive results, whose numbers are uncertain, are shown with a selection of clear calls. Calls follow the shape of the dose curve; as a rule, active = well fitted activation curve with a large enough effect; inconclusive = small, poorly fitted or top-dose-only effect, or another doubt; inactive = no such curve, though single readings can be large or run the other way. Potencies of inconclusive entries are left out as doubtful fits.

Assay: qHTS of TDP-43 Inhibitors; also: nearly all actives have a fitted effect of over 50% in size; as to growth rescue (activation): % of control where 0% means no effect
Conditions: TDP-43 expressing yeast growth rescue, BacTiter-Glo, 24 h; growth rescue (activation): at 46.1 µM (top of the series) unless noted
How it was run: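 Luminescence from BacTiter-Glo reports growth of TDP-43-expressing yeast after 24 hr at 30 deg C with compound. Cells were raffinose-pregrown to mid-log, then seeded in galactose medium at OD600=0.02.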
Potency is read from the fitted curve at half-maximal effect; tags tell the direction and shape of the fitted curve.

Compound | Potency | growth rescue (activation)
Nc1ccc(N2CCN(c3cccc(Cl)c3)CC2)cc1 | inconclusive [activator, single point] | –
Fc1ccc(-c2nc3ccccc3c3nc4ccccc4n23)cc1 | – | inactive: 0.24%
CCOC(=O)C1=C(C)N=c2s/c(=C\c3ccc(OCC(=O)O)cc3)c(=O)n2C1c1ccccc1 (stereo not given) | – | inactive: -3.44%
O=C(NC(c1ccc(Cl)cc1)c1cc(Cl)c2cccnc2c1O)c1cccnc1 (stereo not given) | inconclusive [activator, single point] | –
Cc1ccc(-c2cc(C(=O)NC3=NCCS3)c3ccccc3n2)cc1C | inconclusive [activator, single point] | –
CC(=O)c1ccc(OCC(O)CN2C(C)(C)CC(O)CC2(C)C)cc1 (stereo not given) | inconclusive [activator, single point] | –
Cc1cc(C)cc(OCC(=O)Nc2ccc(Cl)c(-c3nc4ncccc4o3)c2)c1 | – | inactive: -27%
NCCCNc1ccc([N+](=O)[O-])cc1C(F)(F)F | inconclusive [activator, full curve, poor fit] | –
O=C(c1cc2c(s1)CCCC2)N1CCN(S(=O)(=O)c2ccccc2)CC1 | – | inconclusive: 110% [activator]
CCc1ccccc1NC(=O)C1COc2ccccc2C1 (stereo not given) | – | inactive: 1.74%
COc1ccc(-c2csc(NC(CO)c3nc4ccccc4n3Cc3ccc(C)cc3)n2)cc1 (stereo not given) | inconclusive [activator, single point] | –
CCCc1c(-c2ccccc2F)ncn1Cc1ccccc1OC | – | inactive: 15.3%
CC1(C)CC(=O)C(CC(=O)c2ccccc2)=C(NN=C(N)N)C1 | inconclusive [activator, partial curve] | –
Cc1ccc2[nH]cc(CCNC(=O)c3cccnc3)c2c1 | – | inactive: -14.4%
CCC(C)Sc1cccc(-c2nc3ccc(Cl)cn3c2NCc2ccccc2)c1 (stereo not given) | inconclusive [activator, single point] | –
CC1=C(C(=O)Nc2ccccc2C(=O)NC2CCCCC2)SCCO1 | inconclusive [activator, single point] | –
COc1ccc(-c2csc(N3CCN(C(=O)c4ccco4)CC3)n2)cc1 | active: 20 µM | –
CC(=O)N(Cc1cccnc1)c1nc2c(C)cccc2s1 | inconclusive [activator, partial curve, poor fit] | –
CC(Oc1cc2oc(=O)c3c(c2cc1Cl)CCCC3)C(=O)NCCN1CCOCC1 (stereo not given) | inconclusive [activator, single point] | –
COc1cccc(-c2nc(-c3cccc(C)c3)nc3cc(Cl)ccc23)c1 | – | inactive: 6.17%
N/C(=N\OC(=O)c1ccco1)c1cccc([N+](=O)[O-])c1 | inconclusive [activator, partial curve] | –
Cc1nn(C)c(C)c1S(=O)(=O)N(CC(=O)Nc1nccs1)c1ccc(C(C)C)cc1 | inconclusive [activator, full curve] | –
Cc1ccsc1-c1nc(CSCC(=O)N2CCN(c3ccccc3)CC2)c(C)o1 | active: 12.6 µM | –
COCCN(C(=O)COC(=O)C1CCC(C(C)(C)C)CC1)c1c(N)n(Cc2ccccc2)c(=O)[nH]c1=O (stereo not given) | inconclusive [activator, full curve, poor fit] | –

Compound | Potency | growth rescue (activation)
CC(C)(C)NC(=O)c1ccc2c(c1)C(=O)N(C1CCCCC1)C2=O | inconclusive [activator, single point] | –
Cc1ccc(NNC(=O)c2ccno2)cc1Cl | inconclusive [activator, partial curve] | –
COc1ccc(N2CCN(C(=O)c3ccccc3NS(=O)(=O)c3ccc(C)cc3)CC2)cc1 | inconclusive [activator, single point] | –
COc1cc(/C=C/C(=O)c2ccc(O)cc2)ccc1OCC#N | – | inactive: -9.23%
O=C(Nc1ccc(F)c(Cl)c1)c1cc(C2CCCN(C(=O)C3CC3)C2)on1 (stereo not given) | active: 25.1 µM | –
O=C1C2C3C=CC(CNS(=O)(=O)c4ccccc4)(O3)C2C(=O)N1c1ccc(Cl)cc1 (stereo not given) | inconclusive [activator, single point] | –
O=S(=O)(c1ccccc1)N1CCN=C1SCc1c(F)cccc1Cl | active: 11.2 µM | –
CCOC(=O)C1CCCN(C(=O)c2cc(-c3ccccc3)cs2)CC1 (stereo not given) | active: 17.8 µM | –
COc1cc([N+](=O)[O-])ccc1NC(=O)COC(=O)c1c[nH]c(=O)[nH]c1=O | inconclusive [activator, single point] | –
COC(=O)C1C(=O)c2c([nH]c(C(=O)OC3CCCCC3)c2C)CC1C (stereo not given) | inconclusive [activator, full curve, poor fit] | –
CCOc1ccc(Nc2oc(-c3ccc(COc4ccccc4C)o3)nc2C#N)cc1 | inconclusive [activator, partial curve] | –
O=C(CSc1nccn1Cc1ccc(F)cc1)Nc1ccc2c(c1)OCO2 | inconclusive [activator, single point] | –
O=C(COC(=O)c1ccc([N+](=O)[O-])o1)NCCc1ccccc1 | inconclusive [activator, single point] | –
c1ccc(-n2c(SCc3nc(-c4cccs4)no3)nnc2-c2ccco2)cc1 | inconclusive [activator, single point] | –
Cc1nc(-c2ccc(F)cc2)c(CC(=O)N2CCN(S(=O)(=O)c3ccccc3Br)CC2)s1 | – | inactive: 8.67%
S=c1[nH]nc(C2CC2c2ccc(Cl)cc2)n1-c1ccc(Cl)cc1 (stereo not given) | inconclusive [activator, single point] | –
COc1ccc(-c2cc(=O)oc3cc(OCC(=O)Nc4ccccn4)ccc23)cc1 | inconclusive [activator, single point] | –
Oc1ccc(Cl)cc1-c1cc(-c2ccccc2Cl)[nH]n1 | inconclusive [activator, single point] | –
CCCOc1ccc(-c2csc3nc[nH]c(=O)c23)cc1 | inconclusive [activator, partial curve] | –
CCN1CNC(=S)N(CCc2ccccc2)C1 | inconclusive [activator, partial curve] | –
Cc1ccc(NC(=O)CSCC(=O)N(C)CCOc2ccc(Cl)cc2)cc1 | inconclusive [activator, partial curve] | –
COc1ccccc1C(=O)N1CCN(c2ccc(N3CCOCC3)nn2)CC1 | inconclusive [activator, partial curve, poor fit] | –
CCC(=O)N1CCc2cc(S(=O)(=O)NCCC(=O)Nc3ccccc3C)ccc21 | inconclusive [activator, single point] | –
CC1CCCCN1S(=O)(=O)c1cc2c3c(c1)CC(=O)N3CCC2 (stereo not given) | – | inactive: 8.8%

Compound | Potency | growth rescue (activation)
Oc1ccc(-c2c(C3=CCCCC3)sc3ccccc23)cc1 | active: 20 µM | –
CCc1cccc(C)c1NC(=O)C1CCN(S(=O)(=O)Cc2ccccc2)CC1 | – | inactive: 8.27%
O=S(=O)(NCCc1ccccc1)c1ccccc1 | – | inactive: 12.3%
CN(CC(=O)Nc1ccc(Cl)c(C(F)(F)F)c1)C(=O)c1ccc(OCC2CCCO2)cc1 (stereo not given) | inconclusive [activator, single point] | –
CN(CC1COc2ccccc2O1)C(=O)c1cc(COc2c(F)cccc2F)on1 (stereo not given) | inconclusive [activator, single point] | –
O=C(Nc1ccc(OC(F)(F)F)cc1)c1ccc2nccnc2c1 | inconclusive [activator, partial curve] | –
CCOC(=O)C1=CN(CC)S(=O)(=O)NC1c1ccc2ccccc2c1 (stereo not given) | – | inconclusive: 31.3% [activator]
COc1ccccc1NC(=O)c1ccc(NC(=O)COC(=O)C2CC2C)cc1 (stereo not given) | inconclusive [activator, partial curve] | –
Cc1ccc(OCCNC(=O)CNC(=O)c2ccccc2Cl)cc1 | inconclusive [activator, partial curve] | –
Cn1nccc1C(=O)N1CCN(c2cccc(Cl)c2)CC1 | – | inactive: 22.4%
CC1=C(C(=O)Nc2cccc(C(F)(F)F)c2)C2(CCCCC2)OC1=O | inconclusive [activator, partial curve] | –
CCc1cc(C(=O)N2CCCC(C(=O)c3ccc(Oc4ccccc4)cc3)C2)n(C)n1 (stereo not given) | inconclusive [activator, single point] | –
O=C(O)CC1CC(O)CCC1=O (stereo not given) | – | inactive: 2.83%
CCCCn1nc(NC(=O)CC)c2cc3cc(OC)ccc3nc21 | active: 11.2 µM | –
O=C(NNC(=O)c1cc(-c2cccnc2)nc2ccccc12)Nc1ccc(Cl)cc1 | inconclusive [activator, partial curve] | –
CC1CC(C)(C)NCCNC(C)CC(C)(C)NCCN1 (stereo not given) | inconclusive [activator, partial curve] | –
CC(=O)NN1C(=O)/C(=C\c2ccc(Cl)cc2)SC1=S | inconclusive [activator, full curve] | –
COc1ccc(N2CC(NC(=O)COc3ccc4ccccc4c3)CC2=O)cc1 (stereo not given) | inconclusive [activator, single point] | –
Cc1cccnc1Nc1nc(-c2ccc(O)cc2)cs1 | inconclusive [activator, single point] | –
CCOC(=O)c1c(NS(C)(=O)=O)sc2c1CCC(C)C2 (stereo not given) | inconclusive [activator, single point] | –
CC1CCC2(CC1)N=C(c1ccccc1)C(=O)N2CC(=O)Nc1ccc(F)c(Cl)c1 (stereo not given) | – | inactive: 15.2%
COc1cccc(CNC(=O)c2ccc3c(c2)nc2n3CCCCC2)c1OC | – | inactive: 0.46%
